Data from PubChem BioAssay AID504832 (National Center for Advancing Translational Sciences (NCATS), 2011).
Hit rate of the full screen: of about 310,000 compounds, about 18,000 (5.8%) were called active. The inconclusive results got no clear call from the source; some entries with a clear call stand among them for comparison. Calls follow the shape of the dose curve; as a rule, active = well fitted inhibition curve with a large enough effect; inconclusive = small, poorly fitted or top-dose-only effect, or another doubt; inactive = no such curve, though single readings can be large or run the other way. Potencies of inconclusive entries are left out as doubtful fits.

Assay: Primary qHTS for delayed death inhibitors of the malarial parasite plastid, 48 hour incubation
Settings: P. falciparum luciferase growth in erythrocytes; series mostly up to 28.7 µM; activity change, negative = inhibition: at the top concentration
Text: The goal of this screen is to discover new antimalarial compounds that act by inhibiting the development of the apicoplast in the malarial parasite Plasmodium falciparum. The biochemical processes that make this organelle essential for erythrocytic stage parasites are not well understood. However, antibiotics such as azithromycin and tetracycline, which target the apicoplast translational machinery, have a potent antimalarial effect.
We have developed a cell-based assay that measures parasite growth based on the expression of an integrated copy of a firefly luciferase reporter. To detect small molecules that cause this "delayed death" phenotype, erythrocytes infected with the luciferase-expressing parasites were incubated with compounds for either one or two generations, corresponding to 48 and 96 hours, respectively. Compounds that inhibit parasite growth in the second generation, but not the first, should be enriched in antimalarials that target the apicoplast. Growth inhibition is detected by a decrease in luciferase activity.
Assay Provider: David Fidock and Eric Ekland, Columbia University
Keywords: NIH Roadmap, MLPCN, MLI, MLSMR, qHTS, NCGC, qHTS, malaria, luciferase, viability
Four microliters of culture medium (RPMI 1640 with 0.5% w/v Albumax (GIBCO), 24 mM sodium bicarbonate and 10 ug/mL gentamycin) were dispensed by a Multi-drop Combi into white solid 1536-well plates (Grenier) and 23 nL compound was added by a pin tool. Four microliters of infected erythrocytes (2% hematocrit, 0.1% parasitemia final concentration) in culture medium were dispensed and the plates incubated for 48 hours at 37 C in 5% CO2. Two microliters of luciferase detection reagent was added and luminescence was detected by a ViewLux (PerkinElmer) reader.
% is scaled to controls: 0 for no effect and ±100 for the full control effect; potency is read from the fitted curve at half-maximal effect; tags tell the direction and shape of the fitted curve.

SMILES	Potency	activity change, negative = inhibition
CC(C)(C)C(O)C(Cc1ccccc1Cl)n1cncn1 (stereo unspecified)	inconclusive [inhibitor, single point]	–
Cc1ccc(CNCC(O)(c2ccccc2)c2ccccc2)cc1	inconclusive [inhibitor, partial curve]	–
C/C(=N/O)c1ccc(Oc2cnccn2)cc1	–	inactive: 42.5%
Cc1ccsc1/C=N/Nc1nc2ccccc2[nH]1	inconclusive [inhibitor, full curve, poor fit]	–
CCN(CC)C(=O)c1cccc(NC(=O)c2ccc3c(=O)n4c(nc3c2)CCC4)c1	inconclusive [inhibitor, single point]	–
OC[C@H](O)[C@H](O)[C@@H](O)[C@@H](O)[C@@H]1SC(c2ccccc2)=NN1c1ccccc1	active: 13.1 µM	–
CCOC(=O)c1ccc(-c2c(C(=O)OCC)oc3cc(O)c(CC)cc3c2=O)o1	active: 10.4 µM	–
O=C(Nc1ccc(F)c(F)c1)c1ccc(F)c(S(=O)(=O)N2CCOCC2)c1	inconclusive [inhibitor, partial curve, poor fit]	–
COc1ccc(-c2nc(NC(=O)CSCCO)sc2C)cc1	–	inactive: -6.06%
CCC(=O)NS(=O)(=O)c1cccnc1Nc1ccc(Cl)cc1	–	inactive: 17.5%
COc1ccc(S(=O)(=O)N2CCCC(N(C)CCc3ccccc3)C2)cc1OC (stereo unspecified)	inconclusive [inhibitor, single point]	–
NNC(=O)c1csc(-c2ncc(C(F)(F)F)cc2Cl)n1	–	inactive: 1.06%
CCOP(=O)(OCC)C(Nc1cccc(C)c1)c1ccc(F)cc1 (stereo unspecified)	inconclusive [inhibitor, single point]	–
C[C@@H]1CCC(=O)N(CC[C@H](Sc2ccc(Br)cc2)c2ccccc2)CC1	inconclusive [inhibitor, partial curve, poor fit]	–
CC(C)CCNC(=S)Nc1ccc([N+](=O)[O-])cc1	inconclusive [inhibitor, single point]	–
COc1ccccc1C(CC(=O)c1ccccc1)CC(=O)c1ccccc1	inconclusive [inhibitor, single point]	–
CCOC(=O)c1oc2ccc(CNC3CCCCC3)c(Cl)c2c1C	inconclusive [inhibitor, single point]	–
S=C(NC1CCCCC1)N1CCN(c2ncccn2)CC1	–	inactive: -15.1%
CNC(=O)c1cc(C(=O)c2c(Cl)cccc2Cl)c[nH]1	–	inactive: 3.17%
CN(C)CC(CCC(CN(C)C)C(O)(c1ccccc1)c1ccccc1)C(O)(c1ccccc1)c1ccccc1 (stereo unspecified)	active: 1.85 µM	–
Cc1cccc(CN2CCCC(C(=O)Nc3ccc(-c4cscn4)cc3)C2)c1 (stereo unspecified)	inconclusive [inhibitor, single point]	–
